# Source: PubChem BioAssay AID624417 (National Center for Advancing Translational Sciences (NCATS), 2012)
# Where “and” joins values, the source holds several entries; their conditions need not be identical. Equal values may be shown once. Screen size: about 410,000 compounds; about 6,400 (1.6%) were called active. This list was built around the results that the source calls inconclusive (neither active nor inactive); the mix of calls is not that of the screen. Calls follow the shape of the dose curve; as a rule, active = well fitted inhibition curve with a large enough effect; inconclusive = small, poorly fitted or top-dose-only effect; inactive = no such curve, though single readings can be large or run the other way. A potency beside an inconclusive call is a rough fit, not a confirmed value.
# Target: Glucagon-like peptide 1 receptor (Homo sapiens) (UniProt P43220)
# Sequence of UniProt P43220 (P43220 whole entry, looked up): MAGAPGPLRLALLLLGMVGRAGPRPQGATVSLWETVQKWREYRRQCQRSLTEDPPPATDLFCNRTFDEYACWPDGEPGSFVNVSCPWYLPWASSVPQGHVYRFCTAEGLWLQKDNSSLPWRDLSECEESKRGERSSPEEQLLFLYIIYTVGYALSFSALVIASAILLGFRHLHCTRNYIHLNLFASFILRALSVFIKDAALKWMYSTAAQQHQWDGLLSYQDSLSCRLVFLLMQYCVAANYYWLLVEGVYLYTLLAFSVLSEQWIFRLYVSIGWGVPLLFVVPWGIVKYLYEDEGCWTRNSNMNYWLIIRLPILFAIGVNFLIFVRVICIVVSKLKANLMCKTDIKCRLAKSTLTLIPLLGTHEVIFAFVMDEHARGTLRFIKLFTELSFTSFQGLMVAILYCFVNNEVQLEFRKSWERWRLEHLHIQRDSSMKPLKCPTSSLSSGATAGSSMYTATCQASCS
# Assay: qHTS of GLP-1 Receptor Inverse Agonists (Inhibition Mode); also: nearly all actives have a fitted effect of over 55% in size
# Details: HEK293 GLP-1R CRE-luciferase, luminescence, 24 h, GLP-1R form is constitutively active; activity change, negative = inhibition: at 38.3 µM (top of the series) unless noted
# Summary of the method: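 Assay principle: reduced luminescence from a cAMP-responsive reporter in HEK293 cells co-expressing a constitutively active GLP-1R. Conditions: 24 hr compound incubation, 37 deg C, 5% CO2.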
# % is scaled to controls: 0 for no effect and ±100 for the full control effect; potency is read from the fitted curve at half-maximal effect; tags tell the direction and shape of the fitted curve.
SMILES,Potency,"activity change, negative = inhibition"
COc1ccc(-c2nn(-c3ccccc3)cc2/C=C/C(=O)N(C)CC(=O)Nc2cccc(F)c2)cc1OC,"inconclusive: 7.94 µM [inhibitor, partial curve, poor fit]",–
CCCCCC(O)(CCCCC)C(=O)NNc1ccccc1,"inconclusive: 2.24 µM [inhibitor, full curve, poor fit]",–
Cc1cccc(C)c1N=C1SC(CC(=O)Nc2c(C)cccc2C)C(=O)N1CCc1ccccn1 (centres undefined),"inconclusive: 14.1 µM [inhibitor, single point]",–
Cc1[nH]c2ccccc2c1C(=O)COC(=O)C1CC(O)CN1S(=O)(=O)c1ccc(Cl)cc1 (centres undefined),"inconclusive: 8.91 µM [inhibitor, partial curve]",–
Cc1c(N2C(=O)CS/C2=N\N=C\c2ccc(Br)cc2)c(=O)n(-c2ccccc2)n1C,"inconclusive: 12.6 µM [inhibitor, single point]",–
CCOc1ccc(OCc2cccc(C(=O)N/N=C/c3cccnc3)c2)cc1,–,inactive: -72%
CCC(C)c1ccc(OCCn2cc(/C=N/NC(=O)CSc3nnc(C)s3)c3ccccc32)cc1 (centres undefined),"inconclusive: 5.01 µM [inhibitor, full curve]",–
Cc1ccc(S(=O)(=O)N2CCOCC2)cc1C(=O)N1CCN(c2ccc(C(F)(F)F)cn2)CC1,"inconclusive: 8.91 µM [inhibitor, partial curve, poor fit]",–
CCN(c1ccccc1)S(=O)(=O)c1ccc(C(=O)N2CC(C)CC(C)C2)cc1 (centres undefined),"inconclusive: 31.6 µM [inhibitor, single point]",–
C=CCn1c(SCC(=O)N(CC)C2CCS(=O)(=O)C2)nnc1-c1ccccc1 (centres undefined),–,inactive: 7.6%
Fc1ccccc1NC(=S)NCCc1ccc(Cl)cc1,"inconclusive: 28.2 µM [inhibitor, single point]",–
Cn1cc(C(=O)N/N=C/c2c(O)ccc3ccccc23)ccc1=O,active: 3.16 µM,–
CC(=O)Nc1ccc(NC(=O)c2ccccc2Sc2ccc([N+](=O)[O-])cc2Cl)cc1,"inconclusive: 7.94 µM [inhibitor, partial curve, poor fit]",–
O=C1ON=C(c2ccccc2)/C1=C/c1ccccc1,–,inactive: -13.4%
COc1ccc(Cn2c(CCC(=O)Nc3ccc(C)c(C)c3)nc3cccnc32)cc1,"inconclusive: 28.2 µM [inhibitor, single point] and inconclusive: 7.08 µM [inhibitor, single point]",–
CCOc1ccc(CCN2C(=O)C(=O)N([C@@H](Cc3ccccc3)CN3CCC[C@H]3CN3C(=O)C(=O)NC[C@@H]3Cc3ccccc3)C[C@@H]2Cc2ccccc2)cc1,"inconclusive: 28.2 µM [inhibitor, single point]",–
C=CCN(CC=C)C(=O)CN1C(=O)NC(C)(c2ccc3cc(OC)ccc3c2)C1=O (centres undefined),"inconclusive: 11.2 µM [inhibitor, single point]",–
CCC1Oc2ccc(C)cc2N(CC(=O)NCC2COc3ccccc3O2)C1=O (centres undefined),"inconclusive: 10 µM [inhibitor, partial curve, poor fit]",–
COc1cccc(C(=O)c2cn(CC(=O)Nc3cccc(C(F)(F)F)c3)c3nc(C)ccc3c2=O)c1,"inconclusive: 10 µM [inhibitor, partial curve]",–
Cc1ccnn1CCC(=O)N1CCCC(Nc2ccc(C(C)C)cc2)C1 (centres undefined),"inconclusive: 7.08 µM [inhibitor, partial curve, poor fit]",–

SMILES,Potency,"activity change, negative = inhibition"
O=C(Oc1ccc(Cl)c2cccnc12)c1ccco1,"inconclusive: 2.51 µM [inhibitor, full curve, poor fit]",–
O=C(O)c1cc(Cl)n[nH]c1=O,–,inactive: 26.5%
CC(c1ccccc1)N1C(=O)c2ccc(C(=O)NCc3cccnc3)cc2C1=O (centres undefined),"inconclusive: 7.94 µM [inhibitor, partial curve, poor fit]",–
O=C(COC(=O)C1(c2ccc(F)cc2)CCCC1)NCc1ccco1,"inconclusive: 10 µM [inhibitor, partial curve, poor fit]",–
O=C(CNC(=O)c1ccc(OC(F)F)cc1)NC1CCCc2ccccc21 (centres undefined),"inconclusive: 10 µM [inhibitor, partial curve]",–
CCOc1ccc(C(=O)N2CCN(c3ccccc3)CC2)cc1OCC,–,inactive: 0.541%
O=C(NC1CCCC1)C(c1ccccc1)N(Cc1ccc2c(c1)OCO2)C(=O)Cc1cccs1 (centres undefined),active: 10 µM,–
C[C@@H]1CN([C@@H](C)CO)C(=O)CCCn2nncc2CO[C@H]1CN(C)C(=O)Nc1ccc(C(F)(F)F)cc1,"inconclusive: 10 µM [inhibitor, partial curve]",–
COc1cc(NC(=S)NCCc2c[nH]c3ccccc23)c(OC)cc1Cl,"inconclusive: 8.91 µM [inhibitor, partial curve, poor fit]",–
O=S(=O)(c1ccc(SCc2ccccc2F)nc1)N1CCCC1,"inconclusive: 28.2 µM [inhibitor, single point]",–
CCCCn1c(N)c(N(CC(C)C)C(=O)CSCc2c(C)noc2C)c(=O)[nH]c1=O,–,inactive: 20.3%
COc1ccc(OCCn2c(C(C)Oc3ccccc3)nc3ccccc32)cc1 (centres undefined),"inconclusive: 28.2 µM [inhibitor, single point]",–
O=C(NCCCN1CCOCC1)C(=O)NCC1OCCN1S(=O)(=O)c1ccc(Br)cc1 (centres undefined),"inconclusive: 10 µM [inhibitor, partial curve]",–
Cc1cccc(Cc2c(C)[nH]c(=O)c(C#N)c2C)c1,–,inactive: 9.19%
Cc1cc(N/N=C/c2ccccc2O)c2ccccc2n1,"inconclusive: 28.2 µM [inhibitor, single point]",–
Cc1ccc(Cl)cc1-n1ncc2c(NCc3ccc(F)cc3)ncnc21,"inconclusive: 22.4 µM [inhibitor, single point]",–
O=C(c1cccs1)N1CCN(S(=O)(=O)c2cccc(Cl)c2Cl)CC1,"inconclusive: 28.2 µM [inhibitor, single point]",–
CCOC(=O)N1CCN(C(=O)C(NC(=O)c2ccc(C(C)(C)C)cc2)C(C)C)CC1 (centres undefined),"inconclusive: 12.6 µM [inhibitor, single point]",–
CCOc1ccc(CCNC(=O)Cn2c(=O)c3cccn3c3ccc(F)cc32)cc1OCC,–,inactive: 30.2%
